# Reference: the supplement of paper PMC8728848
# The other results are listed elsewhere or left out.
# B1: SRA-1 (Homo sapiens), P21757 (protein)
# chain: MEQWDHFHNQQEDTDSCSESVKFDARSMTALLPPNPKNSPSLQEKLKSFKAALIALYLLVFAVLIPLIGIVAAQLLKWETKNCSVSSTNANDITQSLTGKGNDSEEEMRFQEVFMEHMSNMEKRIQHILDMEANLMDTEHFQNFSMTTDQRFNDILLQLSTLFSSVQGHGNAIDEISKSLISLNTTLLDLQLNIENLNGKIQENTFKQQEEISKLEERVYNVSAEIMAMKEEQVHLEQEIKGEVKVLNNITNDLRLKDWEHSQTLRNITLIQGPPGPPGEKGDRGPTGESGPRGFPGPIGPPGLKGDRGAIGFPGSRGLPGYAGRPGNSGPKGQKGEKGSGNTLTPFTKVRLVGGSGPHEGRVEILHSGQWGTICDDRWEVRVGQVVCRSLGYPGVQAVHKAAHFGQGTGPIWLNEVFCFGRESSIEECKIRQWGTRACSHSEDAGVTCTL
# Experiments:
# Assay in all cases: glycan array binding signal (z-score within array); higher = stronger binding
# Conditions in all cases: glycan notation: IUPAC condensed, linker removed
# [1] = target: GlcNAc(b1-2)[GlcNAc(b1-4)]Man(a1-3)[GlcNAc(b1-4)][GlcNAc(b1-2)Man(a1-6)]Man(b1-4)GlcNAc(b1-4)GlcNAc
# Outline: (§1)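 Negative Z-scores can be read as non-binding. The Z-score is calculated within each array and then averaged across arrays of one protein sequence at different concentrations or buffers and across linkers. Arrays, 3228 in all, were curated from the Consortium for Functional Glycomics database and kept only where the protein sequence was available.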
# [2] = target: GlcNAc(b1-2)[GlcNAc(b1-4)]Man(a1-3)[GlcNAc(b1-4)][GlcNAc(b1-2)[GlcNAc(b1-6)]Man(a1-6)]Man(b1-4)GlcNAc(b1-4)GlcNAc
# Outline: as §1
# [3] = target: GlcNAc(b1-2)[GlcNAc(b1-4)]Man(a1-3)[GlcNAc(b1-4)][GlcNAc(b1-2)[GlcNAc(b1-6)]Man(a1-6)]Man(b1-4)GlcNAc(b1-4)[Fuc(a1-6)]GlcNAc
# Outline: as §1
# [4] = target: GlcNAc(b1-2)[GlcNAc(b1-6)]Man(a1-6)[GlcNAc(b1-2)Man(a1-3)]Man(b1-4)GlcNAc(b1-4)GlcNAc
# Outline: as §1
# [5] = target: GlcNAc(b1-2)[GlcNAc(b1-6)]Man(a1-6)[GlcNAc(b1-2)Man(a1-3)]Man(b1-4)GlcNAc(b1-4)[Fuc(a1-6)]GlcNAc
# Outline: as §1
# [6] = target: GlcNAc(b1-2)[GlcNAc(b1-6)]Man(a1-6)[GlcNAc(b1-4)][GlcNAc(b1-2)Man(a1-3)]Man(b1-4)GlcNAc(b1-4)GlcNAc
# Outline: as §1
# GlcNAc(b1-3)Fuc = target: GlcNAc(b1-3)Fuc
# Outline: as §1
# GlcNAc(b1-3)Gal = target: GlcNAc(b1-3)Gal
# Outline: as §1
# [7] = target: GlcNAc(b1-3)Gal(b1-3)GalNAc
# Outline: as §1
# GlcNAc(b1-3)Gal(b1-4)Glc = target: GlcNAc(b1-3)Gal(b1-4)Glc
# Outline: as §1
# [8] = target: GlcNAc(b1-3)Gal(b1-4)GlcNAc
# Outline: as §1
# [9] = target: GlcNAc(b1-3)Gal(b1-4)GlcNAc(b1-2)Man(a1-3)[GlcNAc(b1-3)Gal(b1-4)GlcNAc(b1-2)Man(a1-6)]Man(b1-4)GlcNAc(b1-4)GlcNAc
# Outline: as §1
# [10] = target: GlcNAc(b1-3)Gal(b1-4)GlcNAc(b1-2)Man(a1-3)[GlcNAc(b1-3)Gal(b1-4)GlcNAc(b1-2)Man(a1-6)]Man(b1-4)GlcNAc(b1-4)[Fuc(a1-6)]GlcNAc
# Outline: as §1
# [11] = target: GlcNAc(b1-3)Gal(b1-4)GlcNAc(b1-2)[GlcNAc(b1-3)Gal(b1-4)GlcNAc(b1-6)]Man(a1-6)[GlcNAc(b1-3)Gal(b1-4)GlcNAc(b1-2)Man(a1-3)]Man(b1-4)GlcNAc(b1-4)GlcNAc
# Outline: as §1
# [12] = target: GlcNAc(b1-3)Gal(b1-4)GlcNAc(b1-3)Gal(b1-4)GlcNAc
# Outline: as §1
# [13] = target: GlcNAc(b1-3)Gal(b1-4)GlcNAc(b1-3)Gal(b1-4)GlcNAc(b1-2)Man(a1-3)[GlcNAc(b1-3)Gal(b1-4)GlcNAc(b1-3)Gal(b1-4)GlcNAc(b1-2)Man(a1-6)]Man(b1-4)GlcNAc(b1-4)GlcNAc
# Outline: as §1
# [14] = target: GlcNAc(b1-3)Gal(b1-4)GlcNAc(b1-3)Gal(b1-4)GlcNAc(b1-2)Man(a1-3)[GlcNAc(b1-3)Gal(b1-4)GlcNAc(b1-3)Gal(b1-4)GlcNAc(b1-2)Man(a1-6)]Man(b1-4)GlcNAc(b1-4)[Fuc(a1-6)]GlcNAc
# Outline: as §1
# [15] = target: GlcNAc(b1-3)Gal(b1-4)GlcNAc(b1-3)Gal(b1-4)GlcNAc(b1-2)[GlcNAc(b1-3)Gal(b1-4)GlcNAc(b1-3)Gal(b1-4)GlcNAc(b1-6)]Man(a1-6)[GlcNAc(b1-3)Gal(b1-4)GlcNAc(b1-3)Gal(b1-4)GlcNAc(b1-2)Man(a1-3)]Man(b1-4)GlcNAc(b1-4)[Fuc(a1-6)]GlcNAc
# Outline: as §1
# [16] = target: GlcNAc(b1-3)Gal(b1-4)GlcNAc(b1-3)Gal(b1-4)GlcNAc(b1-3)Gal(b1-4)GlcNAc(b1-2)Man(a1-3)[GlcNAc(b1-3)Gal(b1-4)GlcNAc(b1-3)Gal(b1-4)GlcNAc(b1-3)Gal(b1-4)GlcNAc(b1-2)Man(a1-6)]Man(b1-4)GlcNAc(b1-4)GlcNAc
# Outline: as §1
# [17] = target: GlcNAc(b1-3)Gal(b1-4)GlcNAc(b1-3)Gal(b1-4)GlcNAc(b1-3)Gal(b1-4)GlcNAc(b1-2)Man(a1-3)[GlcNAc(b1-3)Gal(b1-4)GlcNAc(b1-3)Gal(b1-4)GlcNAc(b1-3)Gal(b1-4)GlcNAc(b1-2)Man(a1-6)]Man(b1-4)GlcNAc(b1-4)[Fuc(a1-6)]GlcNAc
# Outline: as §1
# [18] = target: GlcNAc(b1-3)Gal(b1-4)GlcNAc(b1-3)Gal(b1-4)GlcNAc(b1-3)Gal(b1-4)GlcNAc(b1-2)[GlcNAc(b1-3)Gal(b1-4)GlcNAc(b1-3)Gal(b1-4)GlcNAc(b1-3)Gal(b1-4)GlcNAc(b1-6)]Man(a1-6)[GlcNAc(b1-3)Gal(b1-4)GlcNAc(b1-3)Gal(b1-4)GlcNAc(b1-3)Gal(b1-4)GlcNAc(b1-2)Man(a1-3)]Man(b1-4)GlcNAc(b1-4)[Fuc(a1-6)]GlcNAc
# Outline: as §1
# [19] = target: GlcNAc(b1-3)Gal(b1-4)GlcNAc(b1-3)Gal(b1-4)GlcNAc(b1-3)Gal(b1-4)GlcNAc(b1-3)Gal(b1-4)GlcNAc(b1-2)Man(a1-3)[GlcNAc(b1-3)Gal(b1-4)GlcNAc(b1-3)Gal(b1-4)GlcNAc(b1-3)Gal(b1-4)GlcNAc(b1-3)Gal(b1-4)GlcNAc(b1-2)Man(a1-6)]Man(b1-4)GlcNAc(b1-4)GlcNAc
# Outline: as §1
# [20] = target: GlcNAc(b1-3)Gal(b1-4)GlcNAc(b1-3)Gal(b1-4)GlcNAc(b1-3)Gal(b1-4)GlcNAc(b1-3)Gal(b1-4)GlcNAc(b1-2)Man(a1-3)[GlcNAc(b1-3)Gal(b1-4)GlcNAc(b1-3)Gal(b1-4)GlcNAc(b1-3)Gal(b1-4)GlcNAc(b1-3)Gal(b1-4)GlcNAc(b1-2)Man(a1-6)]Man(b1-4)GlcNAc(b1-4)[Fuc(a1-6)]GlcNAc
# Outline: as §1
# [21] = target: GlcNAc(b1-3)Gal(b1-4)GlcNAc(b1-3)Gal(b1-4)GlcNAc(b1-3)Gal(b1-4)GlcNAc(b1-3)Gal(b1-4)GlcNAc(b1-2)[GlcNAc(b1-3)Gal(b1-4)GlcNAc(b1-3)Gal(b1-4)GlcNAc(b1-3)Gal(b1-4)GlcNAc(b1-3)Gal(b1-4)GlcNAc(b1-6)]Man(a1-6)[GlcNAc(b1-3)Gal(b1-4)GlcNAc(b1-3)Gal(b1-4)GlcNAc(b1-3)Gal(b1-4)GlcNAc(b1-3)Gal(b1-4)GlcNAc(b1-2)Man(a1-3)]Man(b1-4)GlcNAc(b1-4)[Fuc(a1-6)]GlcNAc
# Outline: as §1
# [22] = target: GlcNAc(b1-3)Gal(b1-4)GlcNAc(b1-3)Gal(b1-4)GlcNAc(b1-3)GalNAc
# Outline: as §1
# [23] = target: GlcNAc(b1-3)Gal(b1-4)GlcNAc(b1-3)GalNAc
# Outline: as §1
# [24] = target: GlcNAc(b1-3)Gal(b1-4)GlcNAc(b1-3)[GlcNAc(b1-3)Gal(b1-4)GlcNAc(b1-3)]GalNAc
# Outline: as §1
# [25] = target: GlcNAc(b1-3)Gal(b1-4)GlcNAc(b1-6)[Gal(b1-3)]GalNAc
# Outline: as §1
# [26] = target: GlcNAc(b1-3)Gal(b1-4)GlcNAc(b1-6)[GlcNAc(b1-3)Gal(b1-3)]GalNAc
# Outline: as §1
# [27] = target: GlcNAc(b1-3)Gal(b1-4)GlcNAc(b1-6)[GlcNAc(b1-3)]Gal(b1-4)GlcNAc
# Outline: as §1
# GlcNAc(b1-3)GalNAc = target: GlcNAc(b1-3)GalNAc
# Outline: as §1
# GlcNAc(b1-3)Man = target: GlcNAc(b1-3)Man
# Outline: as §1
# [28] = target: GlcNAc(b1-3)[GlcNAc(b1-4)][GlcNAc(b1-6)]GlcNAc
# Outline: as §1
# [29] = target: GlcNAc(b1-3)[GlcNAc(b1-6)]Gal(b1-4)GlcNAc
# Outline: as §1
# [30] = target: GlcNAc(b1-3)[GlcNAc(b1-6)]GalNAc
# Outline: as §1
# [31] = target: GlcNAc(b1-4)Gal(b1-4)GlcNAc
# Outline: as §1
# GlcNAc(b1-4)GlcNAc = target: GlcNAc(b1-4)GlcNAc
# Outline: as §1
# [32] = target: GlcNAc(b1-4)GlcNAc(b1-4)GlcNAc
# Outline: as §1
binder,measurement,setting,value
B1,glycan array binding signal (z-score),[1],0.021
same,glycan array binding signal (z-score),[2],-0.505
same,glycan array binding signal (z-score),[3],-0.311
same,glycan array binding signal (z-score),[4],-0.647
same,glycan array binding signal (z-score),[5],0.625
same,glycan array binding signal (z-score),[6],-0.219
same,glycan array binding signal (z-score),GlcNAc(b1-3)Fuc,0.485
same,glycan array binding signal (z-score),GlcNAc(b1-3)Gal,-0.179
same,glycan array binding signal (z-score),[7],-0.191
same,glycan array binding signal (z-score),GlcNAc(b1-3)Gal(b1-4)Glc,-0.047
same,glycan array binding signal (z-score),[8],-0.316
same,glycan array binding signal (z-score),[9],-0.204
same,glycan array binding signal (z-score),[10],-0.201
same,glycan array binding signal (z-score),[11],0.853
same,glycan array binding signal (z-score),[12],-0.116
same,glycan array binding signal (z-score),[13],0.543
same,glycan array binding signal (z-score),[14],0.426
same,glycan array binding signal (z-score),[15],0.007
same,glycan array binding signal (z-score),[16],0.127
same,glycan array binding signal (z-score),[17],0.243
same,glycan array binding signal (z-score),[18],0.731
same,glycan array binding signal (z-score),[19],0.642
same,glycan array binding signal (z-score),[20],0.021
same,glycan array binding signal (z-score),[21],-0.069
same,glycan array binding signal (z-score),[22],0.215
same,glycan array binding signal (z-score),[23],-0.189
same,glycan array binding signal (z-score),[24],-0.281
same,glycan array binding signal (z-score),[25],-0.168
same,glycan array binding signal (z-score),[26],0.86
same,glycan array binding signal (z-score),[27],0.193
same,glycan array binding signal (z-score),GlcNAc(b1-3)GalNAc,-0.23
same,glycan array binding signal (z-score),GlcNAc(b1-3)Man,0.353
same,glycan array binding signal (z-score),[28],-0.168
same,glycan array binding signal (z-score),[29],-0.521
same,glycan array binding signal (z-score),[30],-0.134
same,glycan array binding signal (z-score),[31],0.193
same,glycan array binding signal (z-score),GlcNAc(b1-4)GlcNAc,0.287
same,glycan array binding signal (z-score),[32],-0.361
